# Laboratory results from the supplement of paper PMC12217912.
# The list shows a part of the results. Sequences were assembled here from the parent chain. Inactive controls read about 0.05.
# B1: TEV protease; numbered along this chain (parent)
# chain: MGESLFKGPRDYNPISSSICHLTNESDGHTTSLYGIGFGPFIITNKHLFRRNNGTLVVQSLHGVFKVKDTTTLQQHLVDGRDMIIIRMPKDFPPFPQKLKFREPQREERICLVTTNFQTKSMSSMVSDTSCTFPSGDGIFWKHWIQTKDGQCGSPLVSTRDGFIVGIHSASNFTNTNNYFTSVPKNFMELLTNQEAQQWVSGWRLNADSVLWGGHKVFMVKPEEPFQPVKEATQL
# Variants of: B1
# Test: raw area under fraction-flipped curve 0-4 h after induction (AUC4h, not background-subtracted), DNA-recorder readout of cleavage of the substrate (dimensionless); higher = more cleavage of the substrate by the protease variant
# Conditions: temperature: 34 °C; time window: 0-4 h after rhamnose induction
# Description: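 In vivo DNA recorder in E. coli TOP10(DE3) ΔrhaA at 34 °C. Each TEVp single-site mutant (parent TEVp 0) is paired with a single-site variant of the 7-mer TEVs (canonical ENLYFQ|S). The substrate sits between flexible linkers in a Bxb1-sfGFP-TEVs-SsrA fusion, so cleavage stabilises Bxb1 and speeds flipping of a recombination array, read by NGS. The value is the raw area under the fraction-flipped curve over 0-4 h after rhamnose induction (AUC4h), with ≥20 reads per time point. It is not background-subtracted; inactive controls average about 0.047.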
# 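Note: Bxb1 expression induced with 0.2% (w/v) L-rhamnose at OD600 near 0.5, cultures sampled hourly, flipped fraction per protease–substrate barcode pair counted by paired-end Illumina sequencing.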
variant,measurement,value
MEESLFKGPRDYNPISSSICHLTNESDGHTTSLYGIGFGPFIITNKHLFRRNNGTLVVQSLHGVFKVKDTTTLQQHLVDGRDMIIIRMPKDFPPFPQKLKFREPQREERICLVTTNFQTKSMSSMVSDTSCTFPSGDGIFWKHWIQTKDGQCGSPLVSTRDGFIVGIHSASNFTNTNNYFTSVPKNFMELLTNQEAQQWVSGWRLNADSVLWGGHKVFMVKPEEPFQPVKEATQL [G2E],area with substrate ENLYFAS,0.0695
same,area with substrate ENLYFCS,0.0693
same,area with substrate ENLYFDS,0.0573
same,area with substrate ENLYFFS,0.0706
same,area with substrate ENLYFGS,0.0497
same,area with substrate ENLYFHS,0.0676
same,area with substrate ENLYFIS,0.0526
same,area with substrate ENLYFKS,0.0605
same,area with substrate ENLYFMS,0.0912
same,area with substrate ENLYFNS,0.0303
same,area with substrate ENLYFPS,0.062
same,area with substrate ENLYFRS,0.0672
same,area with substrate ENLYFSS,0.0501
same,area with substrate ENLYFVS,0.0569
MGESLFKGPRDYNPYSSSICHLTNESDGHTTSLYGIGFGPFIITNKHLFRRNNGTLVVQSLHGVFKVKDTTTLQQHLVDGRDMIIIRMPKDFPPFPQKLKFREPQREERICLVTTNFQTKSMSSMVSDTSCTFPSGDGIFWKHWIQTKDGQCGSPLVSTRDGFIVGIHSASNFTNTNNYFTSVPKNFMELLTNQEAQQWVSGWRLNADSVLWGGHKVFMVKPEEPFQPVKEATQL [I15Y],area with substrate ENLYFAS,0.0634
same,area with substrate ENLYFCS,0.0493
same,area with substrate ENLYFDS,0.0544
same,area with substrate ENLYFES,0.0592
same,area with substrate ENLYFFS,0.0616
same,area with substrate ENLYFGS,0.0468
same,area with substrate ENLYFHS,0.0622
same,area with substrate ENLYFIS,0.0651
same,area with substrate ENLYFKS,0.0664
same,area with substrate ENLYFLS,0.0447
same,area with substrate ENLYFMS,0.0542
same,area with substrate ENLYFNS,0.0535
same,area with substrate ENLYFPS,0.0588
same,area with substrate ENLYFRS,0.0556
same,area with substrate ENLYFSS,0.06
same,area with substrate ENLYFWS,0.0614
MGESLFKGPRDYNPWSSSICHLTNESDGHTTSLYGIGFGPFIITNKHLFRRNNGTLVVQSLHGVFKVKDTTTLQQHLVDGRDMIIIRMPKDFPPFPQKLKFREPQREERICLVTTNFQTKSMSSMVSDTSCTFPSGDGIFWKHWIQTKDGQCGSPLVSTRDGFIVGIHSASNFTNTNNYFTSVPKNFMELLTNQEAQQWVSGWRLNADSVLWGGHKVFMVKPEEPFQPVKEATQL [I15W],area with substrate ENLYFAS,0.0615
same,area with substrate ENLYFCS,0.0518
same,area with substrate ENLYFDS,0.0398
same,area with substrate ENLYFES,0.0628
same,area with substrate ENLYFFS,0.067
same,area with substrate ENLYFGS,0.0572
same,area with substrate ENLYFHS,0.0608
same,area with substrate ENLYFIS,0.0586
same,area with substrate ENLYFKS,0.0568
same,area with substrate ENLYFLS,0.063
same,area with substrate ENLYFMS,0.0674
same,area with substrate ENLYFNS,0.0565
same,area with substrate ENLYFPS,0.0638
same,area with substrate ENLYFRS,0.0615
same,area with substrate ENLYFSS,0.0583
same,area with substrate ENLYFTS,0.0562
same,area with substrate ENLYFVS,0.0552
same,area with substrate ENLYFWS,0.0609
same,area with substrate ENLYFYS,0.0444
MGESLFKGPRDYNPASSSICHLTNESDGHTTSLYGIGFGPFIITNKHLFRRNNGTLVVQSLHGVFKVKDTTTLQQHLVDGRDMIIIRMPKDFPPFPQKLKFREPQREERICLVTTNFQTKSMSSMVSDTSCTFPSGDGIFWKHWIQTKDGQCGSPLVSTRDGFIVGIHSASNFTNTNNYFTSVPKNFMELLTNQEAQQWVSGWRLNADSVLWGGHKVFMVKPEEPFQPVKEATQL [I15A],area with substrate ENLYFAS,0.045
same,area with substrate ENLYFCS,0.0432
same,area with substrate ENLYFDS,0.0528
same,area with substrate ENLYFES,0.0637
same,area with substrate ENLYFGS,0.0566
same,area with substrate ENLYFHS,0.0451
same,area with substrate ENLYFIS,0.0506
same,area with substrate ENLYFLS,0.0612
same,area with substrate ENLYFMS,0.059
same,area with substrate ENLYFNS,0.066
same,area with substrate ENLYFPS,0.0645
same,area with substrate ENLYFTS,0.0511
same,area with substrate ENLYFVS,0.0434
same,area with substrate ENLYFWS,0.0063
same,area with substrate ENLYFYS,0.0654
MGESLFKGWRDYNPISSSICHLTNESDGHTTSLYGIGFGPFIITNKHLFRRNNGTLVVQSLHGVFKVKDTTTLQQHLVDGRDMIIIRMPKDFPPFPQKLKFREPQREERICLVTTNFQTKSMSSMVSDTSCTFPSGDGIFWKHWIQTKDGQCGSPLVSTRDGFIVGIHSASNFTNTNNYFTSVPKNFMELLTNQEAQQWVSGWRLNADSVLWGGHKVFMVKPEEPFQPVKEATQL [P9W],area with substrate ENLYFAS,0.0652
same,area with substrate ENLYFCS,0.022
same,area with substrate ENLYFFS,0.0703
same,area with substrate ENLYFGS,0.0571
same,area with substrate ENLYFHS,0.0684
same,area with substrate ENLYFIS,0.059
same,area with substrate ENLYFKS,0.0626
same,area with substrate ENLYFMS,0.0787
same,area with substrate ENLYFNS,0.0563
same,area with substrate ENLYFPS,0.0425
same,area with substrate ENLYFSS,0.0577
same,area with substrate ENLYFTS,0.0635
same,area with substrate ENLYFVS,0.0809
same,area with substrate ENLYFWS,0.0482
same,area with substrate ENLYFYS,0.062
MGESLFKGMRDYNPISSSICHLTNESDGHTTSLYGIGFGPFIITNKHLFRRNNGTLVVQSLHGVFKVKDTTTLQQHLVDGRDMIIIRMPKDFPPFPQKLKFREPQREERICLVTTNFQTKSMSSMVSDTSCTFPSGDGIFWKHWIQTKDGQCGSPLVSTRDGFIVGIHSASNFTNTNNYFTSVPKNFMELLTNQEAQQWVSGWRLNADSVLWGGHKVFMVKPEEPFQPVKEATQL [P9M],area with substrate ENLYFAS,0.0408
same,area with substrate ENLYFDS,0.0632
same,area with substrate ENLYFFS,0.0668
same,area with substrate ENLYFHS,0.0549
same,area with substrate ENLYFIS,0.0593
same,area with substrate ENLYFKS,0.0628
same,area with substrate ENLYFLS,0.0536
same,area with substrate ENLYFMS,0.0542
same,area with substrate ENLYFPS,0.053
same,area with substrate ENLYFTS,0.0545
same,area with substrate ENLYFVS,0.055
same,area with substrate ENLYFYS,0.0591
MGESLFKGPRDYDPISSSICHLTNESDGHTTSLYGIGFGPFIITNKHLFRRNNGTLVVQSLHGVFKVKDTTTLQQHLVDGRDMIIIRMPKDFPPFPQKLKFREPQREERICLVTTNFQTKSMSSMVSDTSCTFPSGDGIFWKHWIQTKDGQCGSPLVSTRDGFIVGIHSASNFTNTNNYFTSVPKNFMELLTNQEAQQWVSGWRLNADSVLWGGHKVFMVKPEEPFQPVKEATQL [N13D],area with substrate ENLYFAS,0.0595
same,area with substrate ENLYFCS,0.0543
same,area with substrate ENLYFDS,0.0523
same,area with substrate ENLYFES,0.0726
same,area with substrate ENLYFFS,0.0673
same,area with substrate ENLYFHS,0.056
same,area with substrate ENLYFIS,0.0556
same,area with substrate ENLYFKS,0.0683
same,area with substrate ENLYFLS,0.0643
same,area with substrate ENLYFMS,0.0685
same,area with substrate ENLYFNS,0.0677
same,area with substrate ENLYFRS,0.0581
same,area with substrate ENLYFSS,0.0644
same,area with substrate ENLYFTS,0.0573
same,area with substrate ENLYFVS,0.0465
same,area with substrate ENLYFWS,0.0556
same,area with substrate ENLYFYS,0.0606
MGESLFKGPRDYAPISSSICHLTNESDGHTTSLYGIGFGPFIITNKHLFRRNNGTLVVQSLHGVFKVKDTTTLQQHLVDGRDMIIIRMPKDFPPFPQKLKFREPQREERICLVTTNFQTKSMSSMVSDTSCTFPSGDGIFWKHWIQTKDGQCGSPLVSTRDGFIVGIHSASNFTNTNNYFTSVPKNFMELLTNQEAQQWVSGWRLNADSVLWGGHKVFMVKPEEPFQPVKEATQL [N13A],area with substrate ENLYFAS,0.0637
same,area with substrate ENLYFES,0.0609
same,area with substrate ENLYFFS,0.0812
same,area with substrate ENLYFHS,0.0565
same,area with substrate ENLYFIS,0.0586
same,area with substrate ENLYFKS,0.0544
same,area with substrate ENLYFLS,0.0568
same,area with substrate ENLYFMS,0.0635
same,area with substrate ENLYFNS,0.0697
same,area with substrate ENLYFPS,0.0607
same,area with substrate ENLYFSS,0.0648
same,area with substrate ENLYFTS,0.0643
same,area with substrate ENLYFVS,0.0541
same,area with substrate ENLYFWS,0.0414
MGESLFQGPRDYNPISSSICHLTNESDGHTTSLYGIGFGPFIITNKHLFRRNNGTLVVQSLHGVFKVKDTTTLQQHLVDGRDMIIIRMPKDFPPFPQKLKFREPQREERICLVTTNFQTKSMSSMVSDTSCTFPSGDGIFWKHWIQTKDGQCGSPLVSTRDGFIVGIHSASNFTNTNNYFTSVPKNFMELLTNQEAQQWVSGWRLNADSVLWGGHKVFMVKPEEPFQPVKEATQL [K7Q],area with substrate ENLYFAS,0.0615
same,area with substrate ENLYFCS,0.0672
same,area with substrate ENLYFES,0.0736
same,area with substrate ENLYFFS,0.0585
same,area with substrate ENLYFGS,0.0603
same,area with substrate ENLYFIS,0.0602
same,area with substrate ENLYFKS,0.0646
same,area with substrate ENLYFMS,0.066
same,area with substrate ENLYFPS,0.0645
same,area with substrate ENLYFRS,0.0614
same,area with substrate ENLYFSS,0.089
same,area with substrate ENLYFVS,0.0708
